Measured values from PubChem BioAssay AID686978 (National Center for Advancing Translational Sciences (NCATS), 2013).
Values joined by “and” are separate entries in the source; they are usually repeats but may differ in a detail not shown here. Equal entries are not always repeated. Screen size: about 420,000 compounds; about 64,000 (15%) were called active. This list was built around the results that the source calls inconclusive (neither active nor inactive); the mix of calls is not that of the screen. Calls follow the shape of the dose curve; as a rule, active = well fitted inhibition curve with a large enough effect; inconclusive = small, poorly fitted or top-dose-only effect; inactive = flat fitted curve, though single readings scatter. No potency is given beside an inconclusive call; the fits are too rough.

Assay: qHTS for Inhibitors of human tyrosyl-DNA phosphodiesterase 1 (TDP1): qHTS in cells in absence of CPT; also: nearly all actives have a fitted effect of over 55% in size
Settings: DT40 Tdp1-/- hTDP1 cells, no CPT, ATP luminescence, 48 h; activity change, negative = growth inhibition: at 46.2 µM (top of the series) unless noted
Procedure, shortened: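 Camptothecin absent (DMSO only). Human TDP1-complemented DT40 knockout cells, 400 cells/well, 37 °C for minimum 48 hr; ATP measured via CellTiter-Glo, 30 min dark incubation, luminescence.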
% is scaled to controls: 0 for no effect and ±100 for the full control effect; potency is read from the fitted curve at half-maximal effect; tags tell the direction and shape of the fitted curve.

Row | Structure (SMILES) | Potency | activity change, negative = growth inhibition
1 | CCCn1c(SCC(=O)NC)nc2sc3c(c2c1=O)CCC3 | inactive | –
2 | Cc1cc(Nc2nc3ccccc3nc2Cl)n(-c2ccccc2)n1 | active: 16.4 µM | –
3 | CCCCn1nnnc1SCC(=O)c1cc(Cl)ccc1OC | inactive | –
4 | CCCCc1ccc(NC(=O)C2CCCC2)cc1 | inconclusive [inhibitor, single point] | –
5 | Clc1ccccc1Cc1noc(CN2CCN(Cc3ccccn3)CC2)n1 | inconclusive [inhibitor, single point] | –
6 | CCOc1ccc(NS(=O)(=O)c2ccc(C(=O)NCC(c3cccs3)N3CCOCC3)cc2)cc1 (centres undefined) | inconclusive [inhibitor, single point] | –
7 | Cc1onc(-c2ccccc2Cl)c1C(=O)Nc1cccc(S(=O)(=O)N2CCOCC2)c1 | inconclusive [inhibitor, single point] | –
8 | Cc1ccc(CN2CCN(C/C=C/c3ccc(F)cc3)CC2CCO)o1 (centres undefined) | inconclusive [inhibitor, single point] | –
9 | CCOC1=C2[C@H](c3ccc(Cl)cc3)N(S(=O)(=O)c3ccc(C)cc3)C[C@H]2n2c(=O)n(-c3ccccc3)c(=O)n2C1 | inactive | –
10 | Cc1ccc(C(=O)c2cn(CC(=O)Nc3ccc4c(c3)OCCO4)c3nc(C)ccc3c2=O)cc1 | inconclusive [inhibitor, single point] | –
11 | O=C(Nc1ccccc1Cl)N1CCCN(c2nc(-c3ccccc3)ns2)CC1 | inconclusive [inhibitor, single point] | –
12 | COc1ccc(-c2ccc(C(=O)Nc3ccc4c(c3)OCO4)c3occc23)c(C)c1 | inconclusive [inhibitor, single point] | –
13 | CCOc1ccc(Nc2c(S(=O)(=O)c3ccccc3)cnc3ccc(CC)cc23)cc1 | inconclusive [inhibitor, single point] | –
14 | CCOC(=O)C1(C)CCCN(C(=O)c2ccc(OC)c(OC)c2)C1 (centres undefined) | inactive | –
15 | CCCCCCCNc1nc(Cl)nc(NCCO)n1 | inactive | –
16 | COc1ccc(-c2cc(C(=O)Nc3cc(OC)cc(C(=O)Nc4cccc(C(F)(F)F)c4)c3)[nH]n2)cc1 | active: 2.31 µM and active: 2.59 µM | –
17 | O=S1(=O)CC=C(CSC(=S)NC2CCS(=O)(=O)C2)C1 (centres undefined) | inconclusive [inhibitor, single point] | –
18 | CC1C2CC(CC1(C)C)N(C(=O)Nc1ccc3nccnc3c1)C2 (centres undefined) | inconclusive [inhibitor, partial curve, poor fit] | –
19 | COc1cccc(N2CCN(C(=O)Cn3ncc4c3-c3ccccc3OC4)CC2)c1 | active: 23.1 µM | –
20 | CCc1cc(CN2CCOCC2)c(NC(=O)c2ccccc2)s1 | – | inconclusive: -32.7% [inhibitor]
21 | O=C1C2C3C=CC(CO)(O3)C2C(=O)N1c1ccccc1-c1ccccc1 (centres undefined) | active: 4.11 µM | –
22 | Cc1[nH]c2ccccc2c1C(=O)C(C)OC(=O)c1ccc([N+](=O)[O-])o1 (centres undefined) | active: 16.4 µM | –

Row | Structure (SMILES) | Potency | activity change, negative = growth inhibition
23 | CC[C@]12c3[nH]c4ccc(OC)cc4c3CCN1C(=O)C(CC(=O)NCC13CC4CC(CC(C4)C1)C3)C[C@@H]2C(=O)N1CCN(C(=O)c2ccco2)CC1 (some centres undefined) | active: 8.2 µM | –
24 | O=C(NNC(=O)C1CCC1)c1ccc(F)cc1 | inactive | –
25 | COc1cc2ccccc2cc1C(=O)Nc1ccccc1C | inconclusive [inhibitor, single point] | –
26 | CCOC(=O)c1c(C)n(C)c2cc(-c3cccc(C(F)(F)F)c3)c(O)cc12 | inconclusive [inhibitor, single point] | –
27 | CCCN(CC(=O)Nc1ccc(Cl)cc1Cl)Cc1cc(=O)n2ccsc2n1 | inconclusive [inhibitor, partial curve, poor fit] | –
28 | N#Cc1ccc(N2C(=O)[C@@H]3C(C(=O)C(c4ccccc4)c4ccccc4)=NN[C@@H]3C2=O)cc1 | inconclusive [inhibitor, single point] | –
29 | CC(=O)Nc1cc(-c2nc3ccccc3o2)ccc1Cl | inactive | –
30 | O=C(NCc1n[nH]c(=O)c2ccccc12)C1CC(=O)N(c2ccc(Cl)cc2)C1 (centres undefined) | inactive | –
31 | CC(=O)c1ccc(Nc2ccc(-c3ccccc3F)nn2)cc1 | inconclusive [inhibitor, single point] | –
32 | CSc1oc(-c2ccc(F)cc2)nc1S(=O)(=O)c1ccc(Br)cc1 | inconclusive [inhibitor, single point] | –
33 | COc1ccc(C(O)c2nc(-c3cc(F)cc(Cl)c3)cs2)cc1 (centres undefined) | inconclusive [inhibitor, single point] | –
34 | Cc1ccc(S(=O)(=O)N(C)C)cc1NC(=O)c1ccc2ccccc2n1 | inconclusive [inhibitor, single point] | –
35 | CCCCOC(=O)c1ccc(OC(=O)N2CCOCC2)cc1 | inconclusive [inhibitor, single point] | –
36 | COC(=O)C1CC(O)CN1C(=O)NC1CCCCC1 (centres undefined) | – | inconclusive: -34.9% [inhibitor]
37 | O=C(c1cccc(C(F)(F)F)c1)C1CCCN(C(=O)C2CCOCC2)C1 (centres undefined) | inconclusive [inhibitor, single point] | –
38 | COc1ccc(S(=O)(=O)N2CCOCC2)cc1NC(=O)COC(=O)c1[nH]c(C)c(C(C)=O)c1C | inactive | –
39 | CCOC(=O)c1c(-c2ccccc2)nc2ccccn12 | inconclusive [inhibitor, single point] | –
40 | O=C(Nc1ccccc1)c1ccc(NCCc2ccccc2)c([N+](=O)[O-])c1 | inactive | –
41 | Cc1ccc(C(=O)Nc2cccc(S(=O)(=O)N3CCCCC3)c2)cc1[N+](=O)[O-] | inconclusive [inhibitor, single point] | –
42 | Cc1noc(C)c1COc1ccc(C(=O)NNC(=O)c2ccccc2O)cc1 | active: 16.4 µM | –
43 | O=C(NCc1ccccc1)c1ccc2c(=O)n3c(nc2c1)CCCCC3 | inconclusive [inhibitor, single point] | –
44 | CCC(C)(C)c1ccc(OC(=O)c2cccnc2Cl)cc1 | inconclusive [inhibitor, partial curve, poor fit] | –
